The list shows a part of the results.

This experiment deals with HepG2. As to the kind of experiment: cytotoxicity call (relative viability < 0.9). To be noted: 10 µM.
In the case of `COc1ccc(CN(C)C[C@@H]2Oc3ccc(NC(=O)Nc4ccc(C(F)(F)F)cc4)cc3C(=O)N([C@@H](C)CO)C[C@@H]2C)cc1`, the cytotoxicity call was “active”.

As for `CCc1nnc(N)[nH]1`, the cytotoxicity call was “inactive”.

Regarding `Cc1ccc(S[C@]2(C(=O)NCCCN(C)C)CC(=O)N(C3Cc4ccccc4C3)[C@@H]2c2ccc(CO)cc2I)cc1`, the cytotoxicity call was “inactive”.

For `C[C@@H]1CN([C@@H](C)CO)C(=O)c2cc(NC(=O)CCN3CCOCC3)ccc2O[C@@H]1CN(C)C(=O)Nc1ccccc1`, the cytotoxicity call is “inactive”.

For `C[C@@H]1CCCCO[C@@H](CN(C)C(=O)C2CCCCC2)[C@@H](C)CN([C@H](C)CO)C(=O)c2cc(NC(=O)CCC(F)(F)F)ccc2O1`, the cytotoxicity call is “inactive”.

`C[C@@H]1CN([C@@H](C)CO)C(=O)c2cc(NC(=O)c3ccncc3)ccc2O[C@@H]1CN(C)Cc1ccc(C(=O)O)cc1`: the cytotoxicity call is “inactive”.

Turning to `C[C@@H]1CCCCO[C@@H](CN(C)CC2CC2)[C@@H](C)CN([C@H](C)CO)C(=O)c2cc(NS(C)(=O)=O)ccc2O1`, the cytotoxicity call was “inactive”.

Take `C[C@@H]1CCCCO[C@H](CN(C)C(=O)C2CCCCC2)[C@@H](C)CN([C@H](C)CO)C(=O)c2cc(NC(=O)CCCCCC(=O)Nc3ccccc3N)ccc2O1`: the cytotoxicity call is “inactive”.

With `C[C@H](CO)N1C[C@H](C)[C@@H](CN(C)S(C)(=O)=O)OCCCC[C@H](C)Oc2ccc(NS(=O)(=O)c3cn(C)cn3)cc2C1=O`, the cytotoxicity call is “inactive”.

Consider `CN1C2CCC1CC(OC(=O)c1c[nH]c3ccccc13)C2.Cl` (stereo unspecified), for which the cytotoxicity call is “inactive”.

In the case of `C[C@H]1CN([C@@H](C)CO)C(=O)Cc2cc(NC(=O)c3ccncc3)ccc2O[C@H]1CN(C)Cc1ccc2c(c1)OCO2`, the cytotoxicity call was “inactive”.

Values taken from the antibiotic and cytotoxicity screens of Wong et al. (2023).
